From PubChem BioAssay (NCATS)
This is one part of the list. The main result of the screen is listed elsewhere. These columns were measured beside it and carry no call. Compounds called inactive in the main read-out are mostly missing here. The note in brackets gives the kind of curve behind each potency; many fits are weak.

Experiment: Cell-based coincidence reporter assay to measure PMP22 gene transcription in S16 Pmp22-F2sN cells - Confirmatory screen (AID 1508646)
Settings: S16 Schwann cells Pmp22-F2sN, dual luciferase, 24 h
Method in brief: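 S16 rat Schwann cells carrying FLuc-2A-NLuc reporter in Pmp22 3' UTR (500-1,000 cells/well) treated with pinned compounds for 24 h at 37C. Dual-luciferase reads: FLuc luminescence first, then NLuc after Stop&Glo.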

[1] = measured here: FLuc reporter channel
[2] = measured here: NLuc reporter channel
Tags describe the fitted curve by direction and shape.

Question: What does the source list for `CCOc1ccc(CCNc2nc3ccccc3n3c(C)nnc23)cc1OCC`?
Answer: AC50 [1]: 5.44 µM [falling, full curve, poor fit]; AC50 [2]: 15.3 µM [falling, partial curve]

Question: For `Cc1ccc(C)c(NC(=O)CSc2c3c(nc4ccc(Cl)cc24)CCCC3)c1`, which AC50 [1] is on record?
Answer: Its AC50 is 21.7 µM [falling, partial curve, poor fit].

Question: What about the AC50 [2] of the same compound?
Answer: Its AC50 is 34.3 µM [falling, partial curve].

Question: With `COc1ccc(OC)c(Nc2c3c(nc4ccccc24)CCC3)c1` as the compound, how does the AC50 [1] read?
Answer: Its AC50 is 1.53 µM [falling, full curve].

Question: What about the AC50 [2] of the same compound?
Answer: Its AC50 is 1.37 µM [falling, full curve].

Question: Which AC50 [1] does the source give for `Cc1nnc(N2CCC(C(=O)N3CCCCC3)CC2)c2nn(-c3ccc(Cl)cc3)c(C)c12` here?
Answer: Its AC50 is 19.3 µM [falling, partial curve].

Question: And the AC50 [2]?
Answer: The AC50 was 21.7 µM [falling, partial curve].

Question: Which results are given for `Cc1cccc(C)c1Nc1c(-c2ccsc2)nc2ccccn12`?
Answer: AC50 [1]: 24.3 µM [falling, single point]; AC50 [2]: 1.72 µM [rising, full curve, poor fit]

Question: For `Cc1cccc(OCC(=O)Nc2ccc3nc(SCc4ccccc4)sc3c2)c1`, which AC50 [1] is on record?
Answer: The AC50 was 30.6 µM [falling, single point].

Question: And the AC50 [2]?
Answer: Its AC50 is 24.3 µM [falling, partial curve].

Question: Which AC50 [1] does the source give for `CN(C)CCN(Cc1ccco1)C(=O)c1cc2c(s1)-c1ccccc1OC2` here?
Answer: The AC50 was 34.3 µM [falling, single point].

Question: And the AC50 [2]?
Answer: Its AC50 is 43.2 µM [falling, partial curve].

Question: For `COC(=O)c1c(-c2ccc(Cl)cc2)noc1N1CCN(c2cccc(C(F)(F)F)c2)CC1`, which AC50 [1] is on record?
Answer: Its AC50 is 15.3 µM [falling, partial curve].

Question: What about the AC50 [2] of the same compound?
Answer: The AC50 was 17.2 µM [falling, partial curve].
